Measured values: publication PMC3182262
Results are given in words; binding and its absence hold for the method and conditions named. In cells and extracts the contact can be indirect. Some binding calls cover weakened binding; strength is not graded here. Where a sequence is shown, tags or fusion partners need not be part of it. Values belong to the binder of their own block, whether it stands above or below them.

Chains of the proteins cited; added tags and fusions are not shown. Lines headed by an entry give the natural chain unless they say otherwise; changes in a name come on top. A line that says so, or that is headed by a name, gives the form on record, which may keep a tag or linker. Residues count along the entry.
UniProt P37173: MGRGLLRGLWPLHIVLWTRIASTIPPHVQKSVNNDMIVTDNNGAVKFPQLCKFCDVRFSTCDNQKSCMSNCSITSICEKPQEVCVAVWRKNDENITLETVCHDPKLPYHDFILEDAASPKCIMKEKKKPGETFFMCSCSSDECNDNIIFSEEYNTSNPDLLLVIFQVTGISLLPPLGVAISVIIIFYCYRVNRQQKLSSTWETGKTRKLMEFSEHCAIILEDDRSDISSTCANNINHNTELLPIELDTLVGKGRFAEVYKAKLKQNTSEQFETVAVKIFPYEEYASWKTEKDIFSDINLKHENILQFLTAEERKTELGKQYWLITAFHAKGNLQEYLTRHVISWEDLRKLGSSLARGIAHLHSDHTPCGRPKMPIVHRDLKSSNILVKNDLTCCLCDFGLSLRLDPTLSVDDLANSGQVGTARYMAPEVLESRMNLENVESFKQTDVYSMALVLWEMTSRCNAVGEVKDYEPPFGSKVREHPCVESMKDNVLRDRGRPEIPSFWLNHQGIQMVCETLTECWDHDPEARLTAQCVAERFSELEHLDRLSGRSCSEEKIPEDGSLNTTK
TGF-β type II receptor (TβRII), FLAG tagged, expressed in HEK293T cells: residues 23-567 of P37173
GST-tagged cytoplasmic domain of TβRII: residues 188-567 of P37173

Columns and labels:
[1] = target: T1, FLAG-TAK1, expressed in HEK293T cells, O43318; assay: co-IP; FLAG-TAK1 precipitated with a FLAG antibody from transfected HEK293T cells; western blotting; TRAF6 or TRAF2 co-expressed; conditions: remark: other sources report otherwise
T1 chain: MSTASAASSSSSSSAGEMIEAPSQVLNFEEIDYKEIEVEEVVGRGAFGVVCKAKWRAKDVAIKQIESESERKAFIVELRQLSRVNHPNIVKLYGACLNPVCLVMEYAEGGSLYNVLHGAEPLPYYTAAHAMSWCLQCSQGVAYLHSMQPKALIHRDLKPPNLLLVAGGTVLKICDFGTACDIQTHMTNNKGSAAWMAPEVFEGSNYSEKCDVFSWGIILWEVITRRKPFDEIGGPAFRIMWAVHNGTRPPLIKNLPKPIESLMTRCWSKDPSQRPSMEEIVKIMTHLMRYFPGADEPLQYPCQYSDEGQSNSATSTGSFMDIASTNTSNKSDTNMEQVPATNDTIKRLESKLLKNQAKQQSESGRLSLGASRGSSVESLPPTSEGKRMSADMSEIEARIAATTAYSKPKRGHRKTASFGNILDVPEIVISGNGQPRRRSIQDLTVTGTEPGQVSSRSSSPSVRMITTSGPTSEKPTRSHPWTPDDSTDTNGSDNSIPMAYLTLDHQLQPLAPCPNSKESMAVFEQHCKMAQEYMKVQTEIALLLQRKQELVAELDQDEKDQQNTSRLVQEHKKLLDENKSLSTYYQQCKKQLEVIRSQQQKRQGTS

[2] = target: T2, TRAF6(C70A), catalytically deficient RING domain mutant, FLAG tagged (UniProt Q9Y4K3); assay: co-IP; proteins co-expressed in HEK293T cells; TRAFs (TRAF6, TRAF6(C70A), TRAF2) pulled down from total lysates; western blotting
T2 sequence: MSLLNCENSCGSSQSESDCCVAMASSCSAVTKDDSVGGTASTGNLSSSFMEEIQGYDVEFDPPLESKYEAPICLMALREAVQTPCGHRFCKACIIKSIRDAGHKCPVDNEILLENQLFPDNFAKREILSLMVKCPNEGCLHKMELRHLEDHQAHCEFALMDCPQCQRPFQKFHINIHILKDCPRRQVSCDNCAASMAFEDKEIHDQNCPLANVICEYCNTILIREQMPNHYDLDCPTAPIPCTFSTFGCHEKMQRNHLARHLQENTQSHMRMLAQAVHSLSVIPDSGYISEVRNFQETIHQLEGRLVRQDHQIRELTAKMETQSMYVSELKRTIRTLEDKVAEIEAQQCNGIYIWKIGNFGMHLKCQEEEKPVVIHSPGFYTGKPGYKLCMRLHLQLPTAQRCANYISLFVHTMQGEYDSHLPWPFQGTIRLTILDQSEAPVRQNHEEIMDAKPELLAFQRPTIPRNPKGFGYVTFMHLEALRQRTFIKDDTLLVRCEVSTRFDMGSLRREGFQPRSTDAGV

[3] = target: T3, FLAG-TAK1, expressed in HEK293T cells (UniProt O43318); assay: co-IP; FLAG-TAK1 precipitated with a FLAG antibody from transfected HEK293T cells; western blotting; TRAF6 or TRAF2 co-expressed
T3 sequence: T1 chain

[4] = target: T4, TAB2 (TAK1 binding protein 2), expressed in HEK293T cells (UniProt Q9NYJ8); assay: co-IP; TAB2 precipitated from transfected HEK293T cells, with or without co-expressed TRAF6; western blotting
T4 sequence: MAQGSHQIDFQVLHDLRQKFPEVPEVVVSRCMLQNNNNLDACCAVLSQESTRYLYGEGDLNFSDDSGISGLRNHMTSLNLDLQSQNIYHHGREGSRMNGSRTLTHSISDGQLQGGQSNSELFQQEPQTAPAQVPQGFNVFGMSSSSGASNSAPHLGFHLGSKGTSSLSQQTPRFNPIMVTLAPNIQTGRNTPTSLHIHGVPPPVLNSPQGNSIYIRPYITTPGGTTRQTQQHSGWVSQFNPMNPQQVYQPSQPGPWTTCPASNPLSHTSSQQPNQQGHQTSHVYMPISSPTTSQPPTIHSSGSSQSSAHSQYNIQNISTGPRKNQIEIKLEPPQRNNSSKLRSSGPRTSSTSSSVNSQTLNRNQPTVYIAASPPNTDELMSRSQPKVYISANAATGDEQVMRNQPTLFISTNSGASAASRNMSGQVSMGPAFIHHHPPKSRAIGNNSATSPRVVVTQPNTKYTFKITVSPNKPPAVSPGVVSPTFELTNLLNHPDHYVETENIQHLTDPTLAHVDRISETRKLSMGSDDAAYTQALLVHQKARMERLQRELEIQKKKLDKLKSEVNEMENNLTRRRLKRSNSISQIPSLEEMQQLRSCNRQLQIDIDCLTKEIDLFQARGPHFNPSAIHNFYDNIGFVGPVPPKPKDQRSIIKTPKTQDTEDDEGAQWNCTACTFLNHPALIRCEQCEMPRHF

[5] = target: TGF-β type II receptor (TβRII), FLAG tagged, expressed in HEK293T cells (UniProt P37173); assay: co-IP; proteins co-expressed in HEK293T cells; TGF-β receptors precipitated from total lysates with a FLAG antibody; western blotting; with or without co-expressed TRAF6 or TRAF2
[6] = target: T5, TRAF2, expressed in HEK293T cells, Q12933; assay: co-IP; proteins co-expressed in HEK293T cells; TRAFs (TRAF6, TRAF6(C70A), TRAF2) pulled down from total lysates; western blotting; conditions: remark: other sources report otherwise
T5 chain: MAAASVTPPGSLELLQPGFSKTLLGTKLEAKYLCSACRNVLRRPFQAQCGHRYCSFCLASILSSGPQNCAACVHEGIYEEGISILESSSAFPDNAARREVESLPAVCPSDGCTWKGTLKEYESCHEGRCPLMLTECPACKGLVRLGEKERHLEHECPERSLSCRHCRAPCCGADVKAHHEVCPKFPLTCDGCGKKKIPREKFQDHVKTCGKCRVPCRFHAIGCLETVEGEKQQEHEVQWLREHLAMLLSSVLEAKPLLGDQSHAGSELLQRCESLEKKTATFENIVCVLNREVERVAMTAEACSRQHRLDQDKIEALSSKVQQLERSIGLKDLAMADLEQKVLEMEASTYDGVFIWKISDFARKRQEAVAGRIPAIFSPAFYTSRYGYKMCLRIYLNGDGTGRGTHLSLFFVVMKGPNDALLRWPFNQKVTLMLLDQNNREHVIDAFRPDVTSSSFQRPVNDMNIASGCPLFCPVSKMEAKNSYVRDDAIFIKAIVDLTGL

[7] = target: T6, GST-tagged cytoplasmic domain of TβRI (UniProt P36897); assay: pull-down; GST-tagged receptor cytoplasmic domains immobilized on glutathione beads; HA-TTRAP made in rabbit reticulocyte lysate; western blotting; only the target purified
T6 sequence: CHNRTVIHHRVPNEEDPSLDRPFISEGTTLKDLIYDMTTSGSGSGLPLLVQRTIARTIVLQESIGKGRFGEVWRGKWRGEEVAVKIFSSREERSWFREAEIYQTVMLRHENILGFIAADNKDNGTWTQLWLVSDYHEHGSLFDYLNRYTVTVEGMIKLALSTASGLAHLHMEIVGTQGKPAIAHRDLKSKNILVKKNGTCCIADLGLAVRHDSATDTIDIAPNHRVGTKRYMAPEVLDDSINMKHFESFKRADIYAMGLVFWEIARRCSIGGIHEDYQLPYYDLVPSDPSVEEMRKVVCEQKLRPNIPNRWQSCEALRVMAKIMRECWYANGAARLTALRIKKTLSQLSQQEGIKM

[8] = target: GST-tagged cytoplasmic domain of TβRII (UniProt P37173); assay: as above
[9] = target: T7, HA epitope tagged TAK1 (TGF-β-activated kinase 1), wild type (UniProt O43318); assay: co-IP; TRAF6 or TAK1 precipitated from transfected HEK293T cells; co-precipitating TTRAP fragments detected by western blotting
T7 sequence: T1 chain

binding [1]: no binding
B1: TRAF2, expressed in HEK293T cells, Q12933 1-501 (protein)
chain: T5 chain

binding [2]: binds
binding [3]: binds
binding [4]: binds
binding [5]: binds
B2: HA-TTRAP, transiently expressed in HEK293T cells (protein, UniProt O95551 1-362)
chain: MELGSCLEGGREAAEEEGEPEVKKRRLLCVEFASVASCDAAVAQCFLAENDWEMERALNSYFEPPVEESALERRPETISEPKTYVDLTNEETTDSTTSKISPSEDTQQENGSMFSLITWNIDGLDLNNLSERARGVCSYLALYSPDVIFLQEVIPPYYSYLKKRSSNYEIITGHEEGYFTAIMLKKSRVKLKSQEIIPFPSTKMMRNLLCVHVNVSGNELCLMTSHLESTRGHAAERMNQLKMVLKKMQEAPESATVIFAGDTNLRDREVTRCGGLPNNIVDVWEFLGKPKHCQYTWDTQMNSNLGITAACKLRFDRIFFRAAAEEGHIIPRSLDLLGLEKLDCGRFPSDHWGLLCNLDIIL

binding [6]: no binding
B3: HA-TTRAP, transiently expressed in HEK293T cells, O95551 1-362 (protein)
chain: B2 chain

binding [7]: binds
binding [8]: binds
B4: HA-tagged TTRAP synthesized in rabbit reticulocyte lysate (protein, UniProt O95551 1-362)
chain: B2 chain

binding [9]: binds
B5: N-terminal 1-123 aa segment of TTRAP (domain or fragment, UniProt O95551 1-123)
chain: MELGSCLEGGREAAEEEGEPEVKKRRLLCVEFASVASCDAAVAQCFLAENDWEMERALNSYFEPPVEESALERRPETISEPKTYVDLTNEETTDSTTSKISPSEDTQQENGSMFSLITWNIDG
